This is one part of the list.
What follows are sequences tested on PF3D7_0420300 AP2 domain 1 (GST-tagged) (assay: gcPBM binding intensity (ln(normalized median fluorescence intensity)); higher = stronger DNA binding).
Outline: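 The binding buffer was 1× PBS containing 1% milk, 0.2 mg/ml BSA, 0.5% salmon testes DNA and 0.03% Triton X-100. In it, GST-tagged P. falciparum DNA-binding domains expressed in E. coli were applied for 1 h to an Agilent 4 × 180k array of primer-extended double-stranded 36-bp intergenic genomic probes plus negative controls. Binding intensity, read with Alexa488 anti-GST antibody and a 488 nm scan, is the highest Masliner-normalised natural-log median intensity across replicate spots of either probe orientation.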

Sequence | gcPBM binding intensity (ln)
TATATTTATAAGTGTACACATTATATAAATCCCTAT [CACACA_site6122] | 9.2
ATTAAATGATTCATATGTACATAAATAAATAAATAT [XGTACX_site2249] | 9.33
TATTAATATTTACACACATGCGCACACATAAATAAA [TGCATGCA_site609] | 9.74
TTTCTTTTTAAAGTGTATTAAAATTGAATAAAAAGA [XGTACX_negctrl_site408] | 8.82
TTTTTTTTTTTTGTCACACACCTTCATAAGAAAAAA [CACACA_site4779] | 9.05
ATGAAAAAACATAATTGTACAAAAGTTGGATTCGAT [XGTACX_site7732] | 9.67
GTACAGATATTGTACATACACACCTATATAAATATC [CACACA_site5739] | 9.44
TAAATCCGCAGGCACACACACATATTAAGAAAAAAA [CACACA_site6061] | 9.74
ATCATCACATAAGAAAATAGATAAAAAAAAAAAAAT [XGTACX_negctrl_site589] | 9.19
TTTGAATTTTTATATACACACATTATTATATTATAT [CACACA_site1593] | 9.53
ATCTATGGAGCTTATACACACTTTTATATTTTAACA [CACACA_site5994] | 9.45
TATTTATTTGTGGGGTGTACGAAATTTTTTTTTTTT [XGTACX_site5091] | 10
ATAGGTGAATACTAATATAAATTCAAGAGGGAAAAG [CACACA_negctrl_site720] | 9.44
TTTACATTAAATCACGCACACAAAAAAAAAAAAAAA [CACACA_site2418] | 9.2
TATATATATATAATGTGTACATACTAAATAGAGGAC [XGTACX_site4153] | 9.84
GAAATGTATAAATCCATACACACATAAATTTTAATA [CACACA_site2364] | 9.47
TAAATATAAAAATGCACACACACAAAAAAAAAAAAA [CACACA_site895] | 10
AAAAAAATCTATATTACACACATATATACCTATATA [CACACA_site7464] | 9.44
TACATTGTATACATATGTACACATATATATATATAT [XGTACX_site6174] | 9.42

Sequence | gcPBM binding intensity (ln)
TATTTATGTTATAATTGTACAATAAACAAATTTTTT [XGTACX_site5306] | 8.94
ATTATACATTTTAGATGTACATATTTTAAATTTAAT [XGTACX_site5174] | 9.03
AGAAATTAATCGAAGTGTACATATAAACATACATAT [XGTACX_site5518] | 9.45
ATATTTTGTATAATCACACACACTATTCTTAAATAG [CACACA_site7270] | 9.6
AACAAACAAACAAATATACACACTTTTGTATAAAGT [CACACA_site3509] | 9.77
CCCACATAAAAAAATAAACACACATATGTATATATA [CACACA_site9040] | 9.63
TAATCAATTCAATATTGTACGATATTTACCTTTAAA [XGTACX_site4678] | 9.15
AAATGGGCTTATTTATGTACTTAAATATATCTACCC [XGTACX_site3823] | 9.11
TACATATATATATACACACATACATATATATACGCA [CACACA_site792] | 9.52
AACCTCGTGTAATATGCATGTTCCCTTCAAAGTTTT [TGCATGCA_site459] | 9.34
TATTTCATCTTATTTTAGGAAAAACTAATATATAAG [CACACA_negctrl_site1823] | 8.74
TATTCGTCTTTTTTCTCACACACCCTTTTTATTAAA [CACACA_site2508] | 9.69
AAATTTAGGAACATTATATATATATATATATATATA [CACACA_negctrl_site862] | 9
TAAAAATAAAGAAAATGTACATAAATAATAATACAT [XGTACX_site2278] | 9.52
GAACATTTGAAATATGCACACATGTATAAACCTACA [CACACA_site2654] | 9.5
CAAAAAAAGGAAAAGATACACACCGTAAATTAAAAT [CACACA_site3612] | 9.81
AGCAGGATTAAAAAAAGTACAAGAATTAATATTTAA [XGTACX_site3413] | 9.07
AATTATTATCCCCTCACACACAAAAATAAAAAGAAT [CACACA_site2885] | 9.84
ATTTTTTATTGTTATAAAAAAAAAATTAAACAATTA [CACACA_negctrl_site1077] | 8.7

Sequence | gcPBM binding intensity (ln)
TATATCTATAATATTACACACATATATTTATATTTT [CACACA_site7595] | 9.48
AAAGAAAATAACAAAATTTTGAAAACATCACATTCG [CACACA_negctrl_site89] | 9.44
AAATTAAAGGCATAAAAGAAAATATTTAATAAAAAA [CACACA_negctrl_site1689] | 9.18
TTTTTTTTAATTGTGATACGTATATTATTTAATGAT [CACACA_negctrl_site38] | 9.26
ACCAGTTCTTAATACAAATATGTACATATATATATA [GTGCAC_negctrl_site56] | 9.27
ATATATAATAAACAGGTGCATTGTTTTATTTTGTAT | 9.41
AAAATAAAAAATTAATGTACTTAGAATTGTCACTAA [XGTACX_site1346] | 9.15
TTTTGTAAATATATATGTACATATATATATATATAT [XGTACX_site5803] | 9.05
ACCTATTTATAATAGTGTACGTACAAATTTGTTTAC [XGTACX_site8176] | 9.19
TTTTTCATGTTTATTAGTACATATATTAAGAATGGA [XGTACX_site3493] | 8.95
AATTTGTTGAAACACACACACACATACATATATATA [CACACA_site2287] | 10.1
TAAAATAATAAACAGAAGAAATCATTCATATAAAAA [XGTACX_negctrl_site502] | 9.3
ATAAATATATGATAAAGTACATATTTATATAATAAA [XGTACX_site7263] | 9.09
TGATATTATATATATACACACATGTATGTATATATA [CACACA_site1364] | 9.33
ATATTTATTTATAATTGTACTAATAATATATTTTAA [XGTACX_site587] | 9.05
ATGTATCTATATATATGTACACATATTTTAATTAAA [XGTACX_site3673] | 9.13
TGTGCATAATTTTGTGCACACCACGCTAATAATTTT [CACACA_site2915] | 9.15
GGAATAAATAATATTATACACACGTATATTATTATA [CACACA_site2435] | 9.23

— the supplement of paper PMC11417369
